Measured values as given in PubChem BioAssay AID2675 (National Center for Advancing Translational Sciences (NCATS), 2010).
Among all 280,000 compounds or so, about 100 (0.036%) were called active. Inconclusive results, whose numbers are uncertain, are shown with a selection of clear calls. Calls come from the whole dose curve; as a rule, active = well fitted inhibition curve with a large enough effect in the signal ratio, with a control signal flat (not every such curve was filed as active); inconclusive = small, poorly fitted or top-dose-only effect, or effect the other way, or a change in a side signal; inactive = no such curve, though single readings can be large or run the other way; the % refers to the signal ratio. Where the call is inconclusive, the potency comes from a doubtful curve fit. “Side channel” marks fits to a control or component signal instead of the main read-out.

What follows are molecules tested against Muscleblind-like protein 1 (Homo sapiens) (UniProt Q9NR56) (assay: qHTS Assay for Inhibitors of MBNL1-poly(CUG) RNA binding). Conditions: TR-FRET MBNL1-His/biotin-(CUG)12 binding, 665/545 ratio; activity change, negative = inhibition: at 57.5 µM (top of the series).
Outline: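 Inhibition of protein-RNA binding appears as loss of TR-FRET between terbium anti-His antibody on MBNL1-His and streptavidin-XL665 on biotin-(CUG)12. Activity is normalized to buffer-only and uninhibited-complex controls.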
% is set by controls: 0 for no effect and ±100 for the full control effect; potency is the fitted concentration of half-maximal effect; tags give direction and shape of the fitted curve or compound fluorescence and quenching.

UniProt Q9NR56, sequence (Q9NR56 whole entry, looked up): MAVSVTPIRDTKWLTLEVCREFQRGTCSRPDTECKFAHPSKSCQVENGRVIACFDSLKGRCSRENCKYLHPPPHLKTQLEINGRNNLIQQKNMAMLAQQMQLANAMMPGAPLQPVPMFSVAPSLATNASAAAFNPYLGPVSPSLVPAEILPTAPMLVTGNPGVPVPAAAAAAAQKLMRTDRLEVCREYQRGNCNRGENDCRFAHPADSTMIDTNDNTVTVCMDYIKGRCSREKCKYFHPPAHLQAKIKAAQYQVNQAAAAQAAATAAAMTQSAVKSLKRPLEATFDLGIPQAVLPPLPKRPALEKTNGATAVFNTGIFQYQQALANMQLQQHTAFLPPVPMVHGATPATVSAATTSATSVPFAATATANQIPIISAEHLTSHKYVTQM

Structure (SMILES)	Potency	activity change, negative = inhibition
COc1ccccc1C(CNc1ncccc1[N+](=O)[O-])N(C)C (centres undefined)	inconclusive: 15.8 µM [quencher, partial curve]	
COc1cc(/C=C2\CC/C(=C\c3ccc(OCCO)c(OC)c3)C2=O)ccc1OCCO	inconclusive: 11.2 µM [quencher, side channel, partial curve]	
CNS(=O)(=O)c1ccc(N2CCCC2)c([N+](=O)[O-])c1	inconclusive: 25.1 µM [quencher, side channel, single point]	
CC(=C/c1ccco1)/C=N/NC(=O)c1ccncc1	inconclusive: 31.6 µM [quencher, side channel, single point]	
O=C(CCC(=O)Nc1cc(C(F)(F)F)ccc1Cl)N/N=C\c1cc([N+](=O)[O-])ccc1O		inactive: 4.76%
COc1ccc(/C=C(\C#N)c2c[nH]c3ccccc23)cc1	inconclusive: 31.6 µM [quencher, side channel, partial curve]	
COC(=O)c1ccc(C2c3c(oc4ccc(Cl)cc4c3=O)C(=O)N2CCN2CCOCC2)cc1 (centres undefined)	inconclusive: 11.2 µM [quencher, side channel, partial curve]	
CCc1ccc(C(=O)COC(=O)c2cc([N+](=O)[O-])ccc2NCCO)cc1	inconclusive: 20 µM [quencher, side channel, partial curve, poor fit]	
COc1ccccc1S(=O)(=O)CC(O)COc1ccc(C#N)cc1 (centres undefined)	inconclusive: 28.2 µM [fluorescent, side channel, single point]	
CN(C)CCCn1c(N)c(S(=O)(=O)c2ccccc2)c2nc3ccccc3nc21		inactive: -3.62%
S=C(Nc1ccccc1)Nc1nccs1		inactive: -5.71%
Cc1ccc(OCc2nnc(SCC(=O)c3cccc([N+](=O)[O-])c3)n2C)cc1	inconclusive: 11.2 µM [quencher, side channel, partial curve]	
CCN(CC)C(=O)c1ccc(-c2nnc(Nc3cccc(O)c3)c3ccccc23)cc1	inconclusive: 15.8 µM [quencher, partial curve]	
O=C(Nc1ccc(N2CCCC2)c(Cl)c1)c1ccc([N+](=O)[O-])o1	inconclusive: 12.6 µM [quencher, side channel, partial curve]	
COc1ccc(CCn2c(N)c(C#N)c3nc4ccccc4nc32)cc1OC	inconclusive: 14.1 µM [quencher, side channel, partial curve]	
Cc1cc(-c2nn3c(-c4ccccc4)nnc3s2)c2ccccc2n1	inconclusive: 3.55 µM [quencher, side channel, single point]	
CN1CCN(CCCNC(=O)c2ccc(NC(=O)C3=CSCCO3)cc2)CC1		inactive: 7.08%
CCOC(=O)c1ccc(NC(=O)N2CCN(CCc3ccccc3)CC2)cc1		inactive: -1.31%
CC1CCc2c(nc3nc[nH]n3c2=O)C1 (centres undefined)		inactive: -9.04%
COC(=O)c1ccc(Nc2cc(C)nc3nc(C)nn23)cc1	inconclusive: 398 µM [inhibitor, partial curve]	

Structure (SMILES)	Potency	activity change, negative = inhibition
Cc1cc(/C=C2\Sc3ccccc3N2C)cc(C)[n+]1CC1CCCO1 (centres undefined)	inconclusive: 8.91 µM [quencher, side channel, partial curve]	
CC1CCCCN1c1nc(-c2ccncc2)nc2ccccc12 (centres undefined)		inactive: 1.01%
CC(C)(C)c1ccc(C(=O)O/N=C(\N)c2ccccc2)cc1		inactive: -7.88%
COc1ccc(/C=C2\SC(=S)N(CCC(=O)NCCCN3CCOCC3)C2=O)cc1	inconclusive: 11.2 µM [quencher, side channel, partial curve]	
N#Cc1nc(-c2cccc3ccccc23)oc1NCC1CCCO1 (centres undefined)	inconclusive: 28.2 µM [quencher, partial curve]	
O=c1ccc(-c2ccc([N+](=O)[O-])cc2)nn1-c1ccccc1	inconclusive: 3.16 µM [quencher, side channel, full curve]	
CCOc1ccccc1NC(=O)Cn1ncc2ccc([N+](=O)[O-])cc21	inconclusive: 7.94 µM [quencher, side channel, partial curve]	
COc1ccc(NS(=O)(=O)c2cc(C)ccc2OC)cc1OC		inactive: -2.58%
CSc1ccc(C(=O)c2[nH]c(=O)[nH]c2C)cc1	inconclusive: 15.8 µM [quencher, side channel, partial curve]	
COC(=O)[C@@H]1C[C@]2(OC(=O)c3ccccc3)C=CC(=O)C[C@@H]2N1C(=O)OCc1ccccc1		inactive: -2.13%
Cc1ccc(Nc2c([N+](=O)[O-])ccc3nonc23)cc1C	inconclusive: 7.94 µM [quencher, side channel, partial curve]	
CN(CC(=O)NCCc1ccc(S(N)(=O)=O)cc1)S(=O)(=O)c1cccc2nsnc12	inconclusive: 14.1 µM [quencher, side channel, partial curve]	
Cc1ccc([N+](=O)[O-])c(C(=O)N/N=C/c2cccs2)c1	inconclusive: 17.8 µM [quencher, side channel, partial curve]	
COc1ccc(NC(=O)C2CCCN(S(=O)(=O)c3ccc4c(c3)CCCN4C(C)=O)C2)cc1 (centres undefined)		inactive: -5.13%
CC(=O)c1ccc(NC(=O)CCNC(=O)c2ccccc2Cl)cc1		inactive: -4.77%
Cc1nc(N2CCCCC2)sc1C(=O)c1ccc(Cl)c([N+](=O)[O-])c1	inconclusive: 39.8 µM [quencher, side channel, partial curve, poor fit]	
CC1=CSC2=NC(=O)/C(=C\c3cccn3-c3ccc([N+](=O)[O-])cc3)C(=N)N12	inconclusive: 1.41 µM [quencher, side channel, full curve, poor fit]	
CN(NC1OC(=O)c2ccccc21)c1ccc(Cl)cc1[N+](=O)[O-] (centres undefined)	inconclusive: 12.6 µM [quencher, side channel, partial curve]	
O=c1cc(-c2ccc(O)c(O)c2)oc2cc(O)c(C3OC(CO)C(O)C(O)C3O)c(O)c12 (centres undefined)	inconclusive: 31.6 µM [quencher, side channel, partial curve]	
Cn1c(-c2ccc(C=O)s2)nc2ccccc21	inconclusive: 17.8 µM [quencher, side channel, partial curve]	

Structure (SMILES)	Potency	activity change, negative = inhibition
COc1ccc(C2C(C(C)=O)=C(O)C(=O)N2c2nccs2)cc1 (centres undefined)	inconclusive: 14.1 µM [quencher, side channel, partial curve]	
O=C(NCc1ccco1)c1cc([N+](=O)[O-])ccc1N1CCOCC1	inconclusive: 12.6 µM [quencher, side channel, partial curve]	
COc1ccc(CC(=O)Nc2cccc(-c3ccc4nnc(C)n4n3)c2)cc1	inconclusive: 15.8 µM [quencher, side channel, partial curve]	
COc1ccccc1N1CCN(Cc2ccc(Br)o2)CC1	inconclusive: 100 µM [inhibitor, single point]	
Cc1no[n+]([O-])c1COc1ccc(/C=C2\NC(=S)NC2=O)cc1	inconclusive: 15.8 µM [quencher, side channel, partial curve]	
Cc1ccc(NC(=O)COC(=O)Cn2nc(C)c([N+](=O)[O-])c2C)c([N+](=O)[O-])c1	inconclusive: 1.78 µM [quencher, side channel, full curve]	
Cc1ccc2[nH]c3ccccc3c(=O)c2c1	inconclusive: 3.55 µM [quencher, side channel, full curve]	
C/C(=N/Nc1ncc(Br)cn1)c1ccc([N+](=O)[O-])cc1	inconclusive: 8.91 µM [quencher, side channel, partial curve]	
COc1ccc2c(c1OC)C(=O)N1c3ccccc3N=C(c3ccc([N+](=O)[O-])cc3)CC21 (centres undefined)	inconclusive: 8.91 µM [quencher, side channel, partial curve]	
O=C(Nc1csc([N+](=O)[O-])c1)Nc1c(Cl)cccc1Cl	inconclusive: 20 µM [quencher, partial curve]	
C[C@H](NC(=O)c1ccco1)C(=O)Nc1cccc([N+](=O)[O-])c1	inconclusive: 15.8 µM [quencher, side channel, partial curve]	
Cc1ccc2cc(/C=N/NC(=O)CN3CCOCC3)c(Cl)nc2c1	inconclusive: 3.16 µM [quencher, side channel, full curve]	
COc1cc(/C=C2\SC(=S)N(NC(=O)c3ccc(O)c(OC)c3)C2=O)ccc1O	inconclusive: 14.1 µM [quencher, side channel, partial curve]	
c1ccc(CSc2nnc3c(n2)OC(c2ccco2)Nc2ccccc2-3)cc1 (centres undefined)	inconclusive: 12.6 µM [quencher, side channel, partial curve]	
Cc1[nH]n(-c2ccccc2)c(=O)c1/C=N/N1C(=O)c2ccc3c4c(ccc(c24)C1=O)CC3	inconclusive: 17.8 µM [quencher, side channel, partial curve]	
O=C(/C=C/c1nc2ccccc2s1)N1CCCCCC1	inconclusive: 15.8 µM [quencher, side channel, partial curve]	
O=C1CCC([N+](=O)[O-])C(c2ccc(Cl)c([N+](=O)[O-])c2)N1 (centres undefined)	inconclusive: 25.1 µM [quencher, side channel, single point]	
CCCN(CC(=O)Nc1ccc(Cl)cc1Cl)C(=O)/C=C/c1cc(OC)ccc1OC		inactive: 10.1%
O=C(NCc1cccs1)c1cnc2ccccn2c1=O	inconclusive: 20 µM [quencher, side channel, partial curve]	
